Publication PMC3029384, “Dimeric SecA Couples the Preprotein Translocation in an Asymmetric Manner” (PLoS ONE, 2011)

Tests used:
His6-tagged SecB = molecular target: T1, His6-tagged SecB (Escherichia coli, UniProt P0AG86 1-153); test: negative-stain electron microscopy, single-particle 3D reconstruction; SecA/SecB complex fractions from SEC, 1% uranyl acetate; 18 Å reconstruction, C2 symmetry imposed; crystal structures docked into the map; settings: both partners purified
T1 construct: SecB chaperone, Escherichia coli; The tag is named explicitly only in Materials and for the SecB/proOmpA assembly; also called SecB tetramer; tetrameric SecB
T1 sequence: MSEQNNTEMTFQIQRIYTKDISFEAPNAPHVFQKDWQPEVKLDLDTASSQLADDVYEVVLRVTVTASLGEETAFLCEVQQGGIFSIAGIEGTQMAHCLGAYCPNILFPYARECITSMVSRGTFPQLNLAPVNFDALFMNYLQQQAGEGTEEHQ

[1] = molecular target: the molecule itself; test: negative-stain electron microscopy, single-particle 3D reconstruction; SecA/proOmpA/SecB complex, 1% uranyl acetate; 24 Å reconstruction from 2,704 particles after multi-model refinement, no symmetry; crystal structures docked into the map

stoichiometry N (His6-tagged SecB): 1 SecA dimer per SecB tetramer
B1: SecA (enzyme)
chain: not shown
notes: SecA, the ATPase of the Sec translocase, Escherichia coli; It is described as a homodimer in the complexes; also called E. coli SecA; ecSecA
stoichiometry N [1]: 2
